In all, about 81,000 sequences were measured (“one-hybrid fitness for binding NBS DNA”: median about -0.1, highest 2% from about 0.36 on). This is one part of the list.
B1: Caulobacter ParB omega fusion; a variant is named by its letters at X, in order, B8GW30 (parent)
chain: MESVVVGEPGMSEGRRGLGRGLSALLGEVDAAPAQAPGEQLGGSREAPIEILQRNPDQPRRTFREEDLEDLSNSIREKGVLQPILVRPSPDTAGEYQIVAGERAWRAAQRAGLKTVPIMVRELDDLAVLEIGIIENVQRADLNVLEEALSYKVLMEKFERTQENIAQTIGKSXSHVANXMRLLXLPDEVQSYLVSGELTAXHARAIAAAADPVALAKQIIEGGLSVRETEALARKAPNLSAGKSKGGRPPRVKDTDTQALESDLSSVLGLDVSIDHRGSTGTLTITYATLEQLDDLCNRLTRGI

Variants of: B1
Assay: one-hybrid fitness for binding NBS DNA (the Noc-binding site; scaled: cognate 1, non-cognate 0); higher = stronger binding
Conditions: with NBS DNA site
Summary of the method: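 Values were rescaled so that cognate is 1 and non-cognate is 0. Each is a fitness, the log change in a variant's read ratio to wild type from Illumina reads of plasmids before and after selection, with three replicate libraries pooled and variants under 10 reads dropped. Selection of the Caulobacter ParB libraries, four specificity codons randomised, used E. coli USO with a HIS3 reporter, site 19 bp from the promoter, on M9-minus-histidine with 0.1 mM IPTG and 5 mM 3-AT for 48 hours at 37°C.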

one-hybrid fitness for binding NBS DNA, 0.352:
QQIS

one-hybrid fitness for binding NBS DNA, 0.695:
QTRH

one-hybrid fitness for binding NBS DNA, 0.479:
QYKY

one-hybrid fitness for binding NBS DNA, 0.523:
QHAR

one-hybrid fitness for binding NBS DNA, 0.275:
QCYY

one-hybrid fitness for binding NBS DNA, 0.476:
QCIR

one-hybrid fitness for binding NBS DNA, 0.38:
QMCS

one-hybrid fitness for binding NBS DNA, 0.289:
QRWY

one-hybrid fitness for binding NBS DNA, 0.333:
QHKI

one-hybrid fitness for binding NBS DNA, 0.219:
RNST

one-hybrid fitness for binding NBS DNA, 0.239:
VRYR

one-hybrid fitness for binding NBS DNA, ≤ 0.2:
CSEF
SISW
ASHA
PHLF
IVST
CKGF
RQWW
LRQM
GTNY
NHVR
RNHP
QWCS
DITE
PSIA
KECG
HRCG
QFYK
MSPN
CTDC
VKKI
TYVT
MDPV
SART
HGSA
ALES
GNSK
WWAD
GASS
EFRC
DHCG
KVSL
LYHR
TSDY
NMVM
DFAL
GYPP
WHLV
LLEM
DMNT
TQRV
RGNT
VKKG
CPRI
VRAM
TAFE
AFDN
ASSI
MPRW
LCLF
DTYR
YLTQ
IGLD
HQSS
IVPL
MKSM
FLWC
SQMS
PMAV
PQMG
ACTW
TGMS
SDVV
LCHT
RMQK
VRET
KSYC
LALS
TPQI
VPQR
MAYS
QHHN
FPGR
SCHM
KDLR
NSGS
RWPI
KVHD
PWCG
KQHG
MDPG
HVMY
PAAV
KQMT
LTRY
VETS
ICTL
IKIM
VWKG
YTVM
YSSS
LKLC
YLLD
AYKC
TLCW
LFRD
LEKS
MIWS
KDRV
RTLG
LTWI
QVNC
PSPG
PYAG
TKKV
MDRH
KRKF
PCKL
QASY
DHAG
MNAT
HPRL
RNKQ
GMQR
TLYN
EAAA
EAGL
IDSF
LMSD
DLPF
KLYV
RWWY
ARQM
PVMS
ACGC
MACS
IKGG
QDQK
KYLY
EDAL
SNKV
RQDN
MCSR
SAFI
AVHV
TAYG
WSSS
WLPR
FKGS
IYTG
HKNQ
INEG
RMKG
QSNW
HRYR
LTHQ
EPSV
QRDK
ATSR
TEIV
YLYS
SNAF
QPEV
GNMS
LKIF
YANS
KEIG
TEPC
DLNE
DQGG
ARLM
SEKA
YFDL
DRSE
DWTD
QNYK
AGVI
EIAG
HVAE
DIMI
CGPT
DCAG
PSRW
LGPT
REHF
RVPA
NMDG
HVRY
SIDA
SHHQ
PENG
WTFT
PNRY
IWVG
NHHE
TLMR
ALAQ
YHRI
MCER
PSHT
TAFR
QNIY
NKHA
KLVG
QEWR
WNFG
ENYA
SFTV
RFSN
AHRL
LAHG
TTCA
VVLY
YIMG
IETL
RSCL
RGHN
HKMT
FLWR
YGTP
TTDL
HIKY
FVQR
RPEA
QPVI
RGHF
LNMW
GTDG
NTYG
CWTG
FWTS
TTAC
PHQC
TIGS
ADFS
RQEY
AFPW
NAQP
TGDE
QWWR
LRAN
TPVN
WPSC
RRTF
ADCY
RGNL
KTAI
LVHL
YIHG
NRSW
SWSF
ERDS
SSMC
MNPR
GPQT
GFTL
TIYN
RYQA
WQKF
SHIL
SNHG
RSKM
HPPR
SCYY
KLYG
YNKE
EFDS
AAQR
RKWH
KKMG
KQRF
CQAG
KNVS
LKVN
EFEK
NKAG
WKRR
APKN
RGNH
FMYT
TMYT
RGTG
VNAG
VTTQ
VPRC
GEAC
RNED
TTAP
RVDL
GCIL
STIW
RMKF
SCYV
ECRV
PVTN
AQNN
QQMM
TLRD
HICT
WHHS
HCKN
NGRR
NPLS

one-hybrid fitness for binding NBS DNA, 0.222:
RHVQ

one-hybrid fitness for binding NBS DNA, 0.294:
RRPH

one-hybrid fitness for binding NBS DNA, 0.397:
QRCM

Source: a collection of fitness landscapes (doi:10.1016/j.celrep.2020.107928)
